Data: the supplement of paper PMC3334620
Over roughly 33,000 sequences, “E-score (-0.5 to 0.5)” has its median near -0.036; the highest 2% begin near 0.37. Some of the results follow.

These sequences were tested against T1, Yer064c (UniProt P40041) (assay: PBM E-score (8-mer binding enrichment) (E-score (-0.5 to 0.5)); higher = stronger / more preferred TF binding; most listed sequences are background and not binding sites). Conditions: protein concentration: 200 nM; construct: GST-full length.
T1 sequence: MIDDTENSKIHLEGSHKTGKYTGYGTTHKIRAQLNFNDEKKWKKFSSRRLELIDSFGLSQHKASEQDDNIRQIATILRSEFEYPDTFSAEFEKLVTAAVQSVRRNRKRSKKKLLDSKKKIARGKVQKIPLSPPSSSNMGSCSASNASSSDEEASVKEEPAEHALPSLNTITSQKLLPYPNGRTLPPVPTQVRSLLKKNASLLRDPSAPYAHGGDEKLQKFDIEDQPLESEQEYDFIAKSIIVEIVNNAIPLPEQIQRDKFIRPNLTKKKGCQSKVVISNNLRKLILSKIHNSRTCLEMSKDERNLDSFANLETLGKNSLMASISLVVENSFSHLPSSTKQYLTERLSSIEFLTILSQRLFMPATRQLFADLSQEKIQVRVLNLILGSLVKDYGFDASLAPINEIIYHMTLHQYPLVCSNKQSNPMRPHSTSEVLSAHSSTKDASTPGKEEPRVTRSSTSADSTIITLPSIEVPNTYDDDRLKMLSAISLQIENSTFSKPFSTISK
Procedure, shortened: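 The E-score, a modified Wilcoxon-Mann-Whitney statistic, was computed by the Universal PBM Analysis Suite for every ungapped eight-base word pooled with its reverse complement. Scans behind it were normalised with masliner after bound GST-tagged yeast transcription factors were detected with fluorescent anti-GST. The proteins, at about 100-200 nM, had been applied to universal all-10-mer Agilent arrays made double-stranded by primer extension.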

Sequence	PBM E-score
ACGGTGCA	-0.0944
ACTGGGCG	-0.0675
CTCGGGAC	-0.208
TACTGTGA	0.183
GGGACACC	-0.452
ACGTTGTA	-0.138
CAAGTGCC	-0.312
CCGGACCG	0.00619
TACAAAGA	0.215
ACCGATAG	0.017
AGCAATCC	-0.161
CATCAGAG	0.166
CCGGCGGA	-0.143
GCTTGAAC	-0.0632
GATGCGGA	-0.0711
CGTCCGCC	-0.263
ATAATACC	0.0652
GTCTCTCA	0.181
GGGTGCAC	-0.187
CCAGATCA	0.058
CCTGGAAC	-0.277
AGGTCAAC	-0.0577
GCTAGAAC	0.0611
ATCGTCGA	0.153
CCTGGCCA	-0.288

Sequence	PBM E-score
AAGGATGG	0.0892
GGCTGTAC	-0.082
ATCGACCC	-0.0696
GGGCTGCA	-0.0969
GGTAATGA	0.189
CAAATTAG	0.168
AAATGTTA	-0.0729
AAGAGGGC	-0.249
ACTGTCCC	-0.145
TAGTCGCA	0.412
CGAATGCG	0.0418
CTCAGCCA	0.274
GCCAAAAC	-0.152
CACACCCG	-0.00999
TAATAAAA	0.228
CTGATTTC	0.222
CAGGGCCA	-0.298
ACGATCCT	0.0712
AACGCTAT	-0.253
GAAGTATC	-0.0585
ACTGGGAA	0.0915
ACGTGAGT	0.339
AAGTTATG	0.0309
ATCTACGA	0.145
CAACCAGG	-0.113

Sequence	PBM E-score
AATCGCTC	0.211
CCGGTAGA	-0.0193
TACGACCA	-0.0167
AGAGCACA	0.03
ACCTATAT	0.0832
CCGCGATA	-0.0471
CATTTTAA	0.132
AGCTCCAG	-0.115
GCACGAGA	-0.0587
GCCGGTTA	-0.0775
CAATTAGA	0.135
CACGTGAC	0.133
GCTTTTGA	-0.0379
CATCATGG	0.0236
AATAATCA	0.382
CCATCGGC	-0.128
CTCTTCAC	-0.107
AGAGAACT	-0.0782
CCGGTGTC	-0.0726
ACAGCGTG	-0.0593
ACTTGGTG	-0.0115
GACTTCAA	0.326
CGCACGAA	0.068
AGCCCGAA	-0.104
CAAGTCGA	-0.0228

Sequence	PBM E-score
AAGAGCAG	-0.115
GGTTTATA	0.00611
GATCGTCA	0.0226
ACTCGGAT	0.0489
GCACAACA	-0.0631
TCGCTCCA	-0.0823
AAGCTATG	-0.0849
AGGACGCA	-0.0338
CCCCGCGG	-0.191
GGTCGCTA	-0.197
ACCACTGC	-0.0646
GTAGATAA	0.0955
ATATCAGA	-0.0448
TCCTCCGA	-0.0688
TCGCCGAA	0.0704
CGTGTTTC	-0.179
TAAGTCCA	0.109
ACACAAGT	0.0362
GACGCCCC	-0.35
ATTCTCTA	0.0286
CCAGATGC	0.0961
CCAAAGAC	0.134
ATAACCAG	0.123
ATCGCCAG	0.0156
AATGAGAT	0.0439

Sequence	PBM E-score
AAGCGTAG	-0.094
GCTAGACC	-0.218
ATGCAGGA	-0.0508
CATAGAAA	-0.00929
GTTACGTA	-0.156
CAGGCATG	-0.133
AACGATGT	0.0466
AGCTCCCT	-0.212
GCTCTGGA	0.00623
AGCGATCC	-0.315
CAGCGACG	0.0254
AGGAGACG	-0.273
GCGGGATA	-0.207
CGCAAGAC	-0.0139
CCACACAG	-0.153
ATACATAA	0.136
GCCATATA	-0.0988
GGTAAATA	0.00257
CTTAAGTA	0.141
CCAATTCA	-0.0497
AGCATGGC	-0.119
CATGTGCA	-0.237
AGTTACCA	-0.0239
CCTGTACA	-0.188
ACGGAGGG	-0.244

Sequence	PBM E-score
TCAAATAA	0.129
ATTTCTCA	0.146
AGGGTATA	-0.179
ATGGGTTC	0.0311
ACTGTAGA	0.09
CAGGTCGC	-0.181
CGGGGTAC	-0.155
CTCCTTTC	-0.0828
CAGCGTAC	-0.124
AAGCTTTA	-0.158
ACACTTCC	-0.0311
CCAAGGCA	-0.216
ACCGTGTC	-0.0817
GACCCAAC	-0.048
CTCCGGCA	-0.0651
GGGTCGAC	-0.0797
AATGTCGC	-0.175
ATCACTTG	0.197
GCGGGGGA	-0.205
GGTCGCAA	-0.133
CCATCACC	0.0674
ATATAGGA	0.0351
GCCTATCA	-0.147
ATGTGATC	0.0847
CGTATAAA	0.14

Sequence	PBM E-score
CTACGCGC	0.00965
GCGATTGA	0.145
GCGGTGAC	0.207
TAAGGCCA	-0.227
TCTGCGAA	0.0185
ACAGTTCT	0.0197
CGAGCAAG	-0.0519
ACGTGTCA	0.0212
CAACGCCG	-0.154
CCACAAGC	-0.237
GACTCAGC	0.457
ACTCAGTA	0.343
AAGGCACC	-0.201
CTACTCAA	0.162
CCGTGTAA	-0.0343
CAGCTTTC	-0.126
GCGGGGCA	-0.26
AACAGAAG	0.0362
GACGACCC	-0.217
CTGCTCTC	-0.136
GCATCTAC	-0.0974
CGCCGTAC	-0.113
ACTCCGAG	0.208
GAGGGTAA	-0.142
ACCTCGGG	0.0699

Sequence	PBM E-score
GTTTTATA	-0.0151
ACGATTCT	0.212
ACTCAATG	0.302
GACAGATC	-0.104
ACAAAACC	-0.058
CATTTATC	0.0854
AACTCCCT	-0.0645
AAGCGGAG	-0.207
CGCGACAG	-0.0559
CGCACAGA	-0.282
CTCCGTAA	-0.0364
CCCATCTC	-0.192
TGAACTAA	0.0662
AATGTACC	0.0415
CCTACTCA	0.0895
CGTTTCCC	-0.0481
AAGTTATC	-0.0451
CTCGAGAG	0.0646
GGATAACC	-0.127
AGAGGGCG	-0.24
GACCTGAC	0.172
ACAGTGAA	0.00077
AAAGACAG	-0.0264
CCCAGTAG	-0.0163
GGCATAAA	-0.195

Sequence	PBM E-score
GTAGGAGA	-0.0901
GAGGCCCA	-0.219
AGCCCCTA	-0.358
GAGATCGC	-0.1
ACGGTGAG	0.103
CCATGGTA	0.00037
CATCCTGA	0.0636
CCCCCAAA	-0.188
CCTCTGAG	-0.112
TACCGCAA	0.183
ACACGTTG	0.0958
ACATCCCC	-0.215
AGAAACGA	0.0587
ATGCCCCG	-0.0936
CCTAAAGA	0.0245
TGGAAACA	-0.107
GAGATTCA	0.238
AGTGGCTA	0.203
ACGAACAC	0.0888
